Some of the results follow. At the low end of the ranking the order means little.

The assay addresses MAX:MAX (p21) (UniProt P61244-2). Kind of assay: protein-binding microarray (anti-MAX antibody). The following applies: PBM: 15 mM Tris-HCl pH 7.5, 100 mM KCl, 0.075% NP40, 7.5 mM beta-mercaptoethanol, 375 ng/ul BSA, 8 ng/ul poly(dA-dT):(dA-dT), 550 ng complex, 60 min, room …; high values mean tight binding; double strand, one strand shown; sequences stand for … in CCGGC…TTAATAGCTAAGATTACTATATCGACG
In the case of TGACACGTGATC, the binding signal (log2 normalized fluorescence) stood at 3.15.
In the case of TGAGTGCCCGTA it was 0.375; in that of TGAGTCAGGGTA, -0.467; in that of TGAAGTAGGGTA, -0.682.
TGAATGGCGGTA had a binding signal (log2 normalized fluorescence) of 0.7.
Under TGACCTTCAGTA stands -0.568; under TGACCGAGCGTA, -0.45; under TGACGCGTGCTA, 3.17.
As for TGAACATGAGTA, the binding signal (log2 normalized fluorescence) worked out at 1.84.
In the case of TGAAACACGGTA it was 0.808; in that of TGATCTACGGTA, -0.711; in that of TGACCGGTCGTA, -0.522.
The sequence TGACAAGTTGTA came in with a binding signal (log2 normalized fluorescence) of -0.304.
In the case of TGACGGGTGGTA it was 0.664; in that of TGATACTAAGTA, -0.495; in that of TGAGGAGCAGTA, -0.75.
For TGAAGGCGTGTA, the binding signal (log2 normalized fluorescence) was determined as 1.87.
Under TGATTTGGCGTA stands -1.27; under TATTACGTGGTA, 1.27; under TGAGGGTTAGTA, -0.808.
In the case of AGACGGGAGGTT it was 0.68; in that of TGTAACGTGGTA, 2.88; in that of TGAGTTAATGTA, -1.14.
TGATGCAGAGTA came in with a binding signal (log2 normalized fluorescence) of -0.167.
Under TGAGCCGTGGTA stands 0.289; under TGAAGCGGCGTA, -0.562; under TGAGTCCGCGTA, -0.693.
In turn, TGAAGAACTGTA registered a binding signal (log2 normalized fluorescence) of -0.753.
TGAACGCGAGTA returned a binding signal (log2 normalized fluorescence) of 0.406.
Under TGAGCAGCTGTA stands 0.361.
Under TGAGTAAAAGTA stands -1.27.
As to TGAGCTGGGGTA, the binding signal (log2 normalized fluorescence) is -0.306.
Under TGACTACACGTA stands 0.596; under TGACGGGTCGTA, -0.372.
In the case of TGAGTTCTCGTA it was -1.15; in that of TGATGTGTAGTA, -0.151; in that of TGAGGAACGGTA, -0.678.
Under TGAACGGTTGTA stands -0.545.
As for TGACCACGAGTA, the binding signal (log2 normalized fluorescence) was 2.66.
Under TGAAAAGGTGTA stands -0.00249.
In the case of TGATATTCCGTA it was -1.17.
The sequence TGAGGAGAGGTA returned a binding signal (log2 normalized fluorescence) of -0.732.
Under TGGCCCGGGGTA stands -0.611.
In the case of TGACGATTAGTA it was -1.08.
As for TGAGAACTCGTA, the binding signal (log2 normalized fluorescence) is -0.56.
Under TGACGCAAGGTA stands 0.745.
In the case of TGACAATGTGTA it was 1.45.
AGACACATGGTA: the binding signal (log2 normalized fluorescence) amounted to 3.18.
In the case of TGAGAAATGGTA it was -0.683; in that of TGAAAGGTTGTA, -0.311; in that of TGAGTTACCGTA, -0.943.
In the case of TGTCGCGTCGTA it was -0.202.
Sequence TGACAGCGCGTA had a binding signal (log2 normalized fluorescence) of 0.475.
In the case of TGAATTGGCGTA it was -0.782; in that of CCGCCAAAGCAT, 0.154.
For TGACTGGACGTA, the binding signal (log2 normalized fluorescence) was -0.42.
In the case of TGACTGGTAGTA it was -0.671; in that of TGATCTATCGTA, -1.08.
For the sequence TGAGGAAGTGTA, the binding signal (log2 normalized fluorescence) is -0.651.
In the case of TGATACAAGGTA it was -0.607; in that of TGAGCTGTGGTA, -0.413; in that of TGAATTAACGTA, -0.724.
Under TGACTCGACGTA stands -0.42; under TGACGTTCAGTA, -0.529.
Consider TGAGTATTAGTA, for which the binding signal (log2 normalized fluorescence) is -0.932.
Consider TGAATTGTCGTA, for which the binding signal (log2 normalized fluorescence) is -0.633.
In the case of TGATTACTAGTA it was -0.993; in that of TGACACATGGAA, 3.03.
Under CCTGTGCTGAGC stands 1.87.
In the case of TGAATGCGCGTA it was 0.739; in that of TGACGAGGGGTA, 0.572.
On to TGAGCGCCGGTA, for which the binding signal (log2 normalized fluorescence) was -0.538.
Sequence TGACCCCACGTA displayed a binding signal (log2 normalized fluorescence) of 0.684.
In turn, TGACTCGTAGTG yielded a binding signal (log2 normalized fluorescence) of -0.821.
In the case of TGAATGCCAGTA, the binding signal (log2 normalized fluorescence) was -0.0193.
In the case of TGACCCAACGTA it was -0.297; in that of TGATGACTCGTA, 0.427; in that of TGACACGTGTTG, 3.32.
Under TGAGTGTTAGTA stands -0.0639; under TGACACTTGCTG, 0.64.
Under TGACGCTAGGTA stands -0.628; under TGACGGTCAGTA, -0.24; under TGATTTATTGTA, -0.965.
TGATGTACAGTA had a binding signal (log2 normalized fluorescence) of -0.00798.
In the case of TGACGTGTCGTA it was 1.07.
As to TGACAACCTGTA, the binding signal (log2 normalized fluorescence) was 0.714.
Under TGCAACGTGGTA stands 3.07; under TGACTACTCGTA, -0.414.

The record behind these values is publication PMC5515408.
